No constants are given. Whether binding was seen depends on the method and setting. Binding seen in cells or lysates may run through a third protein. Some results given as binding are weak or reduced against the parent protein; the word gives no strength.
B1: UPF1 (protein, UniProt Q92900 1-1129)
chain: MSVEAYGPSSQTLTFLDTEEAELLGADTQGSEFEFTDFTLPSQTQTPPGGPGGPGGGGAGGPGGAGAGAAAGQLDAQVGPEGILQNGAVDDSVAKTSQLLAELNFEEDEEDTYYTKDLPIHACSYCGIHDPACVVYCNTSKKWFCNGRGNTSGSHIVNHLVRAKCKEVTLHKDGPLGETVLECYNCGCRNVFLLGFIPAKADSVVVLLCRQPCASQSSLKDINWDSSQWQPLIQDRCFLSWLVKIPSEQEQLRARQITAQQINKLEELWKENPSATLEDLEKPGVDEEPQHVLLRYEDAYQYQNIFGPLVKLEADYDKKLKESQTQDNITVRWDLGLNKKRIAYFTLPKTDSGNEDLVIIWLRDMRLMQGDEICLRYKGDLAPLWKGIGHVIKVPDNYGDEIAIELRSSVGAPVEVTHNFQVDFVWKSTSFDRMQSALKTFAVDETSVSGYIYHKLLGHEVEDVIIKCQLPKRFTAQGLPDLNHSQVYAVKTVLQRPLSLIQGPPGTGKTVTSATIVYHLARQGNGPVLVCAPSNIAVDQLTEKIHQTGLKVVRLCAKSREAIDSPVSFLALHNQIRNMDSMPELQKLQQLKDETGELSSADEKRYRALKRTAERELLMNADVICCTCVGAGDPRLAKMQFRSILIDESTQATEPECMVPVVLGAKQLILVGDHCQLGPVVMCKKAAKAGLSQSLFERLVVLGIRPIRLQVQYRMHPALSAFPSNIFYEGSLQNGVTAADRVKKGFDFQWPQPDKPMFFYVTQGQEEIASSGTSYLNRTEAANVEKITTKLLKAGAKPDQIGIITPYEGQRSYLVQYMQFSGSLHTKLYQEVEIASVDAFQGREKDFIILSCVRANEHQGIGFLNDPRRLNVALTRARYGVIIVGNPKALSKQPLWNHLLNYYKEQKVLVEGPLNNLRESLMQFSKPRKLVNTINPGARFMTTAMYDAREAIIPGSVYDRSSQGRPSSMYFQTHDQIGMISAGPSHVAAMNIPIPFNLVMPPMPPPGYFGQANGPAAGRGTPKGKTGRGGRQKNRFGLPGPSQTNLPNSQASQDVASQPFSQGALTQGYISMSQPSQMSQPGLSQPELSQDSYLGDEFKSQIDVALSQDSTYQGERAYQHGGVTGLSQY
B2: UPF3X (protein, UniProt Q9BZI7 1-483)
chain: MKEEKEHRPKEKRVTLLTPAGATGSGGGTSGDSSKGEDKQDRNKEKKEALSKVVIRRLPPTLTKEQLQEHLQPMPEHDYFEFFSNDTSLYPHMYARAYINFKNQEDIILFRDRFDGYVFLDNKGQEYPAIVEFAPFQKAAKKKTKKRDTKVGTIDDDPEYRKFLESYATDNEKMTSTPETLLEEIEAKNRELIAKKTTPLLSFLKNKQRMREEKREERRRREIERKRQREEERRKWKEEEKRKRKDIEKLKKIDRIPERDKLKDEPKIKVHRFLLQAVNQKNLLKKPEKGDEKELDKREKAKKLDKENLSDERASGQSCTLPKRSDSELKDEKPKRPEDESGRDYREREREYERDQERILRERERLKRQEEERRRQKERYEKEKTFKRKEEEMKKEKDTLRDKGKKAESTESIGSSEKTEKKEEVVKRDRIRNKDRPAMQLYQPGARSRNRLCPPDDSTKSGDSAAERKQESGISHRKEGGEE

The chains behind the UniProt entries cited, without tags or fusion partners.
UniProt P31749: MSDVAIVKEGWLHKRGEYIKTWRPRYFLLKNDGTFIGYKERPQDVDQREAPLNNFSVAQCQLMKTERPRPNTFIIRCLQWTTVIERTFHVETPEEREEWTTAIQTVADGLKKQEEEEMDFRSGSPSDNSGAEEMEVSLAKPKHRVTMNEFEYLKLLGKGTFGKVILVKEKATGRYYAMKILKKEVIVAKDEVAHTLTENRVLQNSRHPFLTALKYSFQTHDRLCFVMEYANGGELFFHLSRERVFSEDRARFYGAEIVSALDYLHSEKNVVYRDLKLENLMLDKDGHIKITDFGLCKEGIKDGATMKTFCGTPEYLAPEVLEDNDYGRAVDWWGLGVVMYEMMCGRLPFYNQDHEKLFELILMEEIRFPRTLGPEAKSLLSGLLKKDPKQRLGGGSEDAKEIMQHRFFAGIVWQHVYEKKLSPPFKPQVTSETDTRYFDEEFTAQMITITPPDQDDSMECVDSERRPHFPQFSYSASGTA
UniProt P06730: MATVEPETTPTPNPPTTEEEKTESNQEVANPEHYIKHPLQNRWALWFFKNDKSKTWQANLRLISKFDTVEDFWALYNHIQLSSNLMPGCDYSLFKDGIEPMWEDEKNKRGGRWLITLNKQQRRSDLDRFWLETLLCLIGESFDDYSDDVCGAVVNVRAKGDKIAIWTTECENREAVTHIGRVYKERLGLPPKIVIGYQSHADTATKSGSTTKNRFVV
UniProt Q9HAU5: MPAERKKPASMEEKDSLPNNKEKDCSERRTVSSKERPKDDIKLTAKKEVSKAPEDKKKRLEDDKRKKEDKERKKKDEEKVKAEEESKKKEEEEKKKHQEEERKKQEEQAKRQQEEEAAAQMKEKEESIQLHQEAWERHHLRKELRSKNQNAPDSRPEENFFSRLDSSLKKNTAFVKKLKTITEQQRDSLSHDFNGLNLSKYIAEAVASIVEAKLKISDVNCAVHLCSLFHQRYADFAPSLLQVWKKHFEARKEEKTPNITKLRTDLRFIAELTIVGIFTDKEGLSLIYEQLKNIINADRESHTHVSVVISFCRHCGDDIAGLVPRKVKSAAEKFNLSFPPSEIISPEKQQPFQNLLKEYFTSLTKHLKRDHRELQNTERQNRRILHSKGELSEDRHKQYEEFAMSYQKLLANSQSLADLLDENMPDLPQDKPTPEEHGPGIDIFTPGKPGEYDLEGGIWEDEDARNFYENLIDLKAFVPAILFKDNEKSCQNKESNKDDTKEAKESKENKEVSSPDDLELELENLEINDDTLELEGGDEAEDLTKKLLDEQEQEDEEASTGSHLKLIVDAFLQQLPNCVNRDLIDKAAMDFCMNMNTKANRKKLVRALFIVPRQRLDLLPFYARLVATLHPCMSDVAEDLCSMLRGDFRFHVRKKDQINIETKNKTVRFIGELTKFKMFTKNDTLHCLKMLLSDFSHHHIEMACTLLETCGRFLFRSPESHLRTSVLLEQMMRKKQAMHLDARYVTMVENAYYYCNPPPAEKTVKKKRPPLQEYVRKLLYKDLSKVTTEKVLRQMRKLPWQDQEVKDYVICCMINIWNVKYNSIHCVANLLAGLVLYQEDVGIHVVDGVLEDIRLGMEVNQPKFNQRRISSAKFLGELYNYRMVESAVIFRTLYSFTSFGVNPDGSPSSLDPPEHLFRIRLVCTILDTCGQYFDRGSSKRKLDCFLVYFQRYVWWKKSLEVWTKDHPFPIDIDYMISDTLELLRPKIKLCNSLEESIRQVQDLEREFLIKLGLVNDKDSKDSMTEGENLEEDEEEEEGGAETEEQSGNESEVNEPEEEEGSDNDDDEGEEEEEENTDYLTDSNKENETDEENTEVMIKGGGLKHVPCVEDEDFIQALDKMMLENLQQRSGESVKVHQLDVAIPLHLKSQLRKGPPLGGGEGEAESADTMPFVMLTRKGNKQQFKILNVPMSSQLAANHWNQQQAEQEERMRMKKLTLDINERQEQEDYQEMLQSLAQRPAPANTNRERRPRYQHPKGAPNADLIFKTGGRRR
UniProt Q00987: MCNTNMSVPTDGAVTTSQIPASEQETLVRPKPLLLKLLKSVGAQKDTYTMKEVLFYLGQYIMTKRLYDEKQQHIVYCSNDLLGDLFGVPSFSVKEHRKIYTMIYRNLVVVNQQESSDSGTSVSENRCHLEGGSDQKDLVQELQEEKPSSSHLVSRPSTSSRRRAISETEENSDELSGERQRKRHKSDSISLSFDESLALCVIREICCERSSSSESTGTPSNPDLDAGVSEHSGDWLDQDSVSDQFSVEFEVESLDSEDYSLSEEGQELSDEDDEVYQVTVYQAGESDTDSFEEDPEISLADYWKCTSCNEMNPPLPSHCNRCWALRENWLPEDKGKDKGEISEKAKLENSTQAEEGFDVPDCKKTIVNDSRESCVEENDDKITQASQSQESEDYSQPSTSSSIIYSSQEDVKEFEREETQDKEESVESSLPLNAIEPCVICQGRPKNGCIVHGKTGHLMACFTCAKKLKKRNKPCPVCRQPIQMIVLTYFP

What was measured:
[1] = molecular target: AKT1 (human (endogenous in HEK293FT)) (UniProt P31749); experiment: proximity ligation; Duolink in situ kit, antibodies to the endogenous proteins in cells; untreated cells and cells with control, UPF1 or UPF2 siRNA
[2] = molecular target: AKT1 (human (endogenous in HEK293FT)) (UniProt P31749); experiment: co-IP; endogenous AKT1 immunoprecipitated from HEK293FT WT whole cell extract; lysis 25 mM Tris pH 7.5, 150 mM NaCl, 1 mM EDTA, 1% Triton X100; extracts incubated with RNase A or BSA; western blot
[3] = molecular target: T1, UPF1 (human (endogenous in HEK293FT)) (UniProt Q92900); experiment: co-IP; endogenous UPF1 immunoprecipitated from HEK293FT WT cell extract without stimulation of NMD; lysis 50 mM Tris-HCl pH 7.4, 300 mM NaCl, 0.05% NP40; western blot
T1 sequence: B1 chain

[4] = molecular target: T1, UPF1 (human (endogenous in HEK293FT)); experiment: co-IP; endogenous UPF1 immunoprecipitated from HEK293FT WT cells transfected with Globin Ter plasmid (stimulation of NMD); extracts incubated with RNase A or BSA; western blot
[5] = molecular target: T2, UPF3X (human (endogenous in HEK293FT)) (UniProt Q9BZI7); experiment: co-IP; endogenous UPF3X immunoprecipitated from HEK293FT WT cell extract; lysis 50 mM Tris-HCl pH 7.4, 300 mM NaCl, 0.05% NP40; extracts incubated with RNase A or BSA; western blot
T2 sequence: B2 chain

[6] = molecular target: AKT1 (human (endogenous in HEK293FT)) (UniProt P31749); experiment: co-IP; endogenous AKT1 immunoprecipitated from the cytoplasmic fraction of HEK293FT WT cells transfected with Globin Ter; control or UPF1 siRNA; western blot

| Molecule | binding [1] | binding [2] | binding [3] | binding [4] | binding [5] | binding [6] |
| --- | --- | --- | --- | --- | --- | --- |
| eIF4E (from UniProt P06730 1-217) | no binding | no binding | no binding | no binding |  |  |
| UPF2 (from UniProt Q9HAU5 1-1272) | no binding | no binding | binds | binds | binds |  |
| AKT1 (from UniProt P31749 1-480) (enzyme) |  |  |  |  | binds |  |
| E3 ubiquitin-protein ligase mouse double minute 2 (MDM2) (from UniProt Q00987 1-491) | binds | binds |  |  |  |  |
| B1 |  |  |  |  | binds |  |
| B2 | binds | binds | binds | binds |  | binds |

Reference: publication PMC8565340
